The supplement of paper PMC9151546
Single values are uncertain, as repeats are few or missing.

Key:
[1] = test system: CHO-K1; assay: micronucleus frequency (% of nucleated events); higher = more micronuclei (genotoxic)
[2] = test system: CHO-K1; assay: hypodiploid nuclei frequency (% of nucleated events); higher = more hypodiploid events (aneugenic)
[3] = test system: CHO-K1; assay: relative survival (nuclei to bead ratio vs DMSO control) (% of vehicle control); higher = more surviving cells
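Throughout, for hypodiploid nuclei frequency (% of nucleated events): hypodiploid nuclei gated on a flow cytometer with 488 nm excitation after SYTOX Green staining, cultures at 37 °C, positive controls vinblastine without S9 and cyclophosphamide with S9.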
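Throughout, for micronucleus frequency (% of nucleated events): cells lysed with nuclei stained by SYTOX Green, then micronucleus-gated events counted against nucleated events by flow cytometry with 488 nm excitation.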
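Throughout, for relative survival (nuclei to bead ratio vs DMSO control): Lysed-cell nuclei stained with SYTOX Green and counted against counting beads by flow cytometry at 488 nm excitation, with vinblastine (no S9) and cyclophosphamide (plus S9) as positive controls.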

Nc1ccc(Cc2ccc(N)cc2)cc1 [4,4'-Methylenedianiline]
Settings | hypodiploid nuclei frequency, [2] [%] | micronucleus frequency, [1] [%] | relative survival, [3]
concentration: 4.5 (µM), S9 metabolic activation: with S9, exposure time: 3-4 hours | 0.14 | 0.5 | 54.8
concentration: 4.5 (µM), S9 metabolic activation: without S9, exposure time: 24 hours | 0.32 | 1.1 | 103
concentration: 5.63 (µM), S9 metabolic activation: with S9, exposure time: 3-4 hours | 0.34 | 0.6 | 67
concentration: 5.63 (µM), S9 metabolic activation: without S9, exposure time: 24 hours | 0.48 | 0.94 | 112
concentration: 7.04 (µM), S9 metabolic activation: with S9, exposure time: 3-4 hours | 0.18 | 0.86 | 74.2
concentration: 7.04 (µM), S9 metabolic activation: without S9, exposure time: 24 hours | 0.52 | 1.16 | 97
concentration: 8.8 (µM), S9 metabolic activation: with S9, exposure time: 3-4 hours | 0.1 | 0.6 | 77.6
concentration: 8.8 (µM), S9 metabolic activation: without S9, exposure time: 24 hours | 0.28 | 1.18 | 122
concentration: 11 (µM), S9 metabolic activation: with S9, exposure time: 3-4 hours | 0.2 | 0.86 | 75.1
concentration: 11 (µM), S9 metabolic activation: without S9, exposure time: 24 hours | 0.72 | 1.28 | 118
concentration: 13.7 (µM), S9 metabolic activation: with S9, exposure time: 3-4 hours | 0.26 | 0.9 | 73.1
concentration: 13.7 (µM), S9 metabolic activation: without S9, exposure time: 24 hours | 0.54 | 1.46 | 118
concentration: 17.2 (µM), S9 metabolic activation: with S9, exposure time: 3-4 hours | 0.18 | 0.62 | 72.9
concentration: 17.2 (µM), S9 metabolic activation: without S9, exposure time: 24 hours | 0.26 | 0.96 | 107
concentration: 21.5 (µM), S9 metabolic activation: with S9, exposure time: 3-4 hours | 0.16 | 0.74 | 77.4
concentration: 21.5 (µM), S9 metabolic activation: without S9, exposure time: 24 hours | 0.58 | 1 | 152
concentration: 26.8 (µM), S9 metabolic activation: with S9, exposure time: 3-4 hours | 0.26 | 1.24 | 83.3
concentration: 26.8 (µM), S9 metabolic activation: without S9, exposure time: 24 hours | 0.52 | 1.28 | 125
concentration: 33.6 (µM), S9 metabolic activation: with S9, exposure time: 3-4 hours | 0.24 | 0.78 | 85.8
concentration: 33.6 (µM), S9 metabolic activation: without S9, exposure time: 24 hours | 0.48 | 1.4 | 117
concentration: 41.9 (µM), S9 metabolic activation: with S9, exposure time: 3-4 hours | 0.2 | 1.08 | 83.3
concentration: 41.9 (µM), S9 metabolic activation: without S9, exposure time: 24 hours | 0.32 | 0.88 | 113
concentration: 52.4 (µM), S9 metabolic activation: with S9, exposure time: 3-4 hours | 0.18 | 0.96 | 81.8
concentration: 52.4 (µM), S9 metabolic activation: without S9, exposure time: 24 hours | 0.52 | 0.64 | 87.9
concentration: 65.5 (µM), S9 metabolic activation: with S9, exposure time: 3-4 hours | 0.22 | 0.96 | 75.8
concentration: 65.5 (µM), S9 metabolic activation: without S9, exposure time: 24 hours | 0.62 | 1.3 | 101
concentration: 81.9 (µM), S9 metabolic activation: with S9, exposure time: 3-4 hours | 0.28 | 0.82 | 90
concentration: 81.9 (µM), S9 metabolic activation: without S9, exposure time: 24 hours | 0.82 | 1 | 119
concentration: 102 (µM), S9 metabolic activation: with S9, exposure time: 3-4 hours | 0.3 | 0.92 | 81.2
concentration: 102 (µM), S9 metabolic activation: without S9, exposure time: 24 hours | 1.02 | 1.06 | 108
concentration: 128 (µM), S9 metabolic activation: with S9, exposure time: 3-4 hours | 0.2 | 0.72 | 110
concentration: 128 (µM), S9 metabolic activation: without S9, exposure time: 24 hours | 0.74 | 1 | 112
concentration: 160 (µM), S9 metabolic activation: with S9, exposure time: 3-4 hours | 0.1 | 0.98 | 102
concentration: 160 (µM), S9 metabolic activation: without S9, exposure time: 24 hours | 1.08 | 1.3 | 105
concentration: 200 (µM), S9 metabolic activation: with S9, exposure time: 3-4 hours | 0.2 | 0.7 | 108
concentration: 200 (µM), S9 metabolic activation: without S9, exposure time: 24 hours | 1.18 | 2.02 | 85.9

Nc1nc(=S)c2[nH]cnc2[nH]1 [6-Thioguanine]
Settings | hypodiploid nuclei frequency, [2] [%] | micronucleus frequency, [1] [%] | relative survival, [3]
concentration: 4.5 (µM), S9 metabolic activation: with S9, exposure time: 3-4 hours | 0.18 | 1.36 | 64.4
concentration: 4.5 (µM), S9 metabolic activation: without S9, exposure time: 24 hours | 0.34 | 1.88 | 74.8
concentration: 5.63 (µM), S9 metabolic activation: with S9, exposure time: 3-4 hours | 0.26 | 1.32 | 79.4
concentration: 5.63 (µM), S9 metabolic activation: without S9, exposure time: 24 hours | 0.68 | 1.52 | 72.3
concentration: 7.04 (µM), S9 metabolic activation: with S9, exposure time: 3-4 hours | 0.12 | 1.3 | 76.2
concentration: 7.04 (µM), S9 metabolic activation: without S9, exposure time: 24 hours | 0.7 | 2.08 | 66.8
concentration: 8.8 (µM), S9 metabolic activation: with S9, exposure time: 3-4 hours | 0.24 | 1.5 | 66.9
concentration: 8.8 (µM), S9 metabolic activation: without S9, exposure time: 24 hours | 0.48 | 2.18 | 56.2
concentration: 11 (µM), S9 metabolic activation: with S9, exposure time: 3-4 hours | 0.34 | 1.16 | 71.3
concentration: 11 (µM), S9 metabolic activation: without S9, exposure time: 24 hours | 0.84 | 2.28 | 62
concentration: 13.7 (µM), S9 metabolic activation: with S9, exposure time: 3-4 hours | 0.26 | 1.2 | 62.6
concentration: 13.7 (µM), S9 metabolic activation: without S9, exposure time: 24 hours | 1.04 | 2.9 | 54
concentration: 17.2 (µM), S9 metabolic activation: with S9, exposure time: 3-4 hours | 0.36 | 1.12 | 75.2
concentration: 17.2 (µM), S9 metabolic activation: without S9, exposure time: 24 hours | 1.54 | 3.14 | 56.2
concentration: 21.5 (µM), S9 metabolic activation: with S9, exposure time: 3-4 hours | 0.26 | 1.8 | 76.9
concentration: 21.5 (µM), S9 metabolic activation: without S9, exposure time: 24 hours | 1.58 | 3.34 | 45.8
concentration: 26.8 (µM), S9 metabolic activation: with S9, exposure time: 3-4 hours | 0.26 | 1.4 | 73.5
concentration: 26.8 (µM), S9 metabolic activation: without S9, exposure time: 24 hours | 1.48 | 3.22 | 57.7
concentration: 33.6 (µM), S9 metabolic activation: with S9, exposure time: 3-4 hours | 0.22 | 1.36 | 71.3
concentration: 33.6 (µM), S9 metabolic activation: without S9, exposure time: 24 hours | 1.56 | 2.7 | 62.9
concentration: 41.9 (µM), S9 metabolic activation: with S9, exposure time: 3-4 hours | 0.3 | 1.7 | 70.8
concentration: 41.9 (µM), S9 metabolic activation: without S9, exposure time: 24 hours | 1.08 | 2.98 | 44.2
concentration: 52.4 (µM), S9 metabolic activation: with S9, exposure time: 3-4 hours | 0.26 | 2.72 | 65.6
concentration: 52.4 (µM), S9 metabolic activation: without S9, exposure time: 24 hours | 1.44 | 2.92 | 47.7
concentration: 65.5 (µM), S9 metabolic activation: with S9, exposure time: 3-4 hours | 0.34 | 3.26 | 74.8
concentration: 65.5 (µM), S9 metabolic activation: without S9, exposure time: 24 hours | 1.1 | 2.7 | 44.6
concentration: 81.9 (µM), S9 metabolic activation: with S9, exposure time: 3-4 hours | 0.38 | 3.64 | 66
concentration: 81.9 (µM), S9 metabolic activation: without S9, exposure time: 24 hours | 1.14 | 3.44 | 46.4
concentration: 102 (µM), S9 metabolic activation: with S9, exposure time: 3-4 hours | 0.32 | 4.44 | 62.6
concentration: 102 (µM), S9 metabolic activation: without S9, exposure time: 24 hours | 1 | 3.38 | 43.1
concentration: 128 (µM), S9 metabolic activation: with S9, exposure time: 3-4 hours | 0.62 | 6.62 | 54.8
concentration: 128 (µM), S9 metabolic activation: without S9, exposure time: 24 hours | – | – | 39.3
concentration: 160 (µM), S9 metabolic activation: with S9, exposure time: 3-4 hours | 0.72 | 6.9 | 61.7
concentration: 160 (µM), S9 metabolic activation: without S9, exposure time: 24 hours | – | – | 37.5
concentration: 200 (µM), S9 metabolic activation: with S9, exposure time: 3-4 hours | 0.76 | 7.46 | 54.2
concentration: 200 (µM), S9 metabolic activation: without S9, exposure time: 24 hours | – | – | 36.6
